Measured values as given in the supplement of paper PMC10126150.
Values marked as one replicate rest on one cluster of the flow cell; about a third of the high ones do not repeat.

Tested on: ATP
Assay: switch fluorescence ratio, 500 uM ATP over buffer (Cy3 cluster intensity, sum of 5 cycles each) (fold (ratio)); higher = stronger signal-on switching upon ATP binding; sequences stand for … in TCGTCGGCAGCGTCAGATGTGTATAAGAGACAGTTTTTTTTTTTTTTTTTTTTTTTTT…TC
Details: aptamer strand: ATP DNA aptamer (quencher-CACCTGGGGGAGTATTGCGGAGGAAGG + anchor), 100 nM annealed; ATP concentration: 500 uM; one replicate
Procedure, shortened: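 Imaging in selection buffer was followed by imaging after 15 min with 500 uM ATP at 22 °C, for Cy3-labelled switching-strand clusters annealed to 100 nM quencher-labelled ATP aptamer on a modified Illumina MiSeq flow-cell. Five of these buffer/ATP cycles ran, separated by NaOH stripping and re-annealing. The fluorescence ratio per cluster is summed target-cycle over summed buffer-cycle Cy3 intensity, averaged per switch-domain sequence; clusters outside 100-1000 RFU were removed.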
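Also: ATP exposure 15 min at 22 °C before imaging.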

Row | Sequence | switch fluorescence ratio
1 | GGGCATTCAA | 1
2 | TAGCCGCTGC | 1.14
3 | CACGCACTGT | 1.64
4 | ACGTGCTTGC | 0.989
5 | ATTCAGAGCG | 1.05
6 | CTACTCCTCA | 1.14
7 | AAATATTTTC | 0.96
8 | ATACCAACGT | 1.37
9 | GATCGGGGG | 1.02
10 | GGCTTGGTCC | 1.07
11 | TAAAGCTGAA | 0.975
12 | GAGACGTGGT | 1
13 | TGCATACAAG | 0.976
14 | AACTGTGGGC | 0.963
15 | GTATCACATT | 0.977
16 | TGCCCTTCGG | 0.995
17 | GATTCCGTTC | 1.03
18 | GGTATTCTA | 0.985
19 | GTAGGACCTG | 0.94
20 | GTGGCTTGAG | 1.01
21 | GACTGAGAAA | 1.03
22 | TCCACATACC | 1.5
23 | TCGAATGAGC | 0.946
24 | TATACCTACT | 1.31
25 | ATACAGATCG | 1.03

Row | Sequence | switch fluorescence ratio
26 | CTCAGTGCCG | 1.01
27 | AAATACGGCA | 1.06
28 | ATGTGTGTAC | 0.997
29 | CCAGCGCGTA | 1.16
30 | GGCGTGGTTT | 1.01
31 | TCCCCTAAAG | 0.99
32 | TTTCAGCGGT | 0.97
33 | ACATAACGGC | 1.02
34 | AGTTCTGTTG | 1.04
35 | TAGTAACTT | 1.02
36 | CCGAGCTGGT | 2.38
37 | ACTAAAAAC | 0.993
38 | TGGACGGTGG | 0.969
39 | GCCGGGTGCG | 0.984
40 | AGGGGAATGA | 0.957
41 | TTACCTAGCA | 1.1
42 | CTTCTTAACT | 0.983
43 | ACTCAGGGCA | 1.07
44 | TGGCCCAGTT | 0.979
45 | AGAGACACGC | 1.04
46 | GCGGCTGGTA | 1
47 | TACCTTGCCT | 1.26
48 | ATCGTCTCGT | 0.984
49 | AGAAAGTGC | 1.01
50 | CCCAACGTAC | 1.95

Row | Sequence | switch fluorescence ratio
51 | GTTCAATGG | 1.04
52 | TCTGACCACT | 1.08
53 | CATTGGCTGG | 0.968
54 | TTCAGAAAT | 0.974
55 | GGCTCTCAGG | 1.04
56 | TTGGGACGTG | 0.945
57 | ACGTACAGTT | 1.39
58 | CGAATTCTAG | 0.965
59 | GATGTACTCA | 0.989
60 | ATCTTTCTGC | 1
61 | GCGGGCGAAG | 0.998
62 | TTTATATCAC | 1.08
63 | CATTAGTCCT | 1.03
64 | AGCTTATTAC | 2.24
65 | ATGGTCCGC | 1.2
66 | TTGGGATGTC | 0.981
67 | AGTGCTCCGA | 1.07
68 | GGTGCTCTCG | 1
69 | TCGTGACGCC | 1.01
70 | GTGGGGATAG | 0.938
71 | TGGCTATACG | 1.1
72 | AATTGTATTT | 0.999
73 | CATTCCGGCG | 1.63
74 | TTAGTACAGT | 1.08
75 | ACTGAGGCGA | 0.883

Row | Sequence | switch fluorescence ratio
76 | GAGTAGAGAT | 1
77 | AAAGATAGGA | 0.971
78 | TGATCGGAGG | 1.05
79 | GATGCCTACG | 1.06
80 | AGTATTATCG | 1.01
81 | AACATTGTGA | 1.02
82 | GAGAGGTAAT | 0.956
83 | TAGACAGCTT | 1
84 | ACGGTACCAT | 1.34
85 | GAAACCGTGA | 1.41
86 | TTAAGTCTAG | 0.998
87 | CTCAATATCT | 1.06
88 | ACAACACCGA | 1.21
89 | AGTTGTGGTG | 0.959
90 | GGCTATATTG | 1.02
91 | CGGAGCGTCG | 1.01
92 | GATGGGTTAG | 1.02
93 | ATAATTAGCT | 1.03
94 | TTGCTTGGAT | 0.982
95 | GAGGATGCTT | 1.06
96 | TATTGACCGC | 1.1
97 | CCGCTAAGCT | 3.92
98 | TTATTAGAGG | 0.938
99 | GTGTCGTCTA | 1.03
100 | GGTGTATAAG | 0.996

Row | Sequence | switch fluorescence ratio
101 | CCTCGTTTGG | 1.09
102 | ACTGCTTTCT | 0.98
103 | AACTTGGTTG | 1.01
104 | TCTGAGGGG | 0.981
105 | CGTCCCAAGT | 1.7
106 | CAGATATACG | 1.02
107 | GCGTCCTGAC | 1.13
108 | GCTGTAGCGT | 0.993
109 | GCGTAAAGCA | 0.976
110 | TGAAAGTCGG | 1.01
111 | ATAATTAGG | 0.973
112 | GACAGTCTCC | 1.04
113 | GTACTTGTTA | 0.997
114 | TGCTCGTTCT | 0.972
115 | AATTGTCCTC | 0.936
116 | TTGAAAACGC | 1.1
117 | GGGATTGTGG | 0.961
118 | GCGTACGAAT | 0.955
119 | AGGCCCTTAG | 0.996
120 | TTTTGGTCTA | 0.978
121 | GCGATCTTCG | 0.991
122 | GCAGTAATCA | 1.14
123 | AGAAAGAAT | 0.991
124 | AGATTGTCTG | 0.95
125 | TAGCCCGGAA | 1.2

Row | Sequence | switch fluorescence ratio
126 | ACATTTGGAG | 1.02
127 | ATAACTTACG | 1.25
128 | TTAGAATATC | 0.984
129 | AGTATATAAG | 0.995
130 | TACGGAGTGA | 1.11
131 | TGAATGAATC | 0.955
132 | ACTGATATTA | 0.977
133 | AATAAACTGA | 1.03
134 | CTAACTGACC | 1.12
135 | CGAAAATTAG | 0.958
136 | CTTAGCTTTA | 1.04
137 | AGAGATTCAA | 1.12
138 | CCGTAAAAGA | 1.09
139 | TGTAGGTTGG | 1.07
140 | TTGTGTCTAC | 0.981
141 | GTACTCGGTG | 1.02
142 | ATCGCGCCTC | 1.1
143 | GAAGTTGGGC | 0.993
144 | CAGCGATTGT | 1.01
145 | GGACATGTCT | 0.983
146 | ACGCCGTTTA | 1.03
147 | ATTAAAAAGC | 1.01
148 | TAGTCTTCCA | 1
149 | CCAGGCGGTC | 1.08
150 | GAGTTCGGCT | 0.944

Row | Sequence | switch fluorescence ratio
151 | AACCCACGCT | 1.34
152 | GTTTCAGCTA | 1.6
153 | GAGAGCATTT | 1.01
154 | CAATACAGCA | 1.22
155 | GAGACCAGCT | 1.01
156 | GAATCGCCGG | 0.997
157 | ATGAGAGGAC | 1.02
158 | AAAACGGTTA | 1.02
159 | GCCATGAGAT | 1
160 | GGATCCAAAA | 0.989
161 | ACCCGGGCCG | 0.955
162 | ATTTACCGAG | 1.12
163 | GCCTCTGATC | 1.09
164 | TGGAATAGTA | 1.03
165 | GCATGGATTT | 1.02
166 | AAAACCATCC | 2.1
167 | TACATTTGTG | 0.969
168 | CAAATCTACG | 1.05
169 | TTACGGTCAC | 1.42
170 | TTGTCAGCGA | 1.04
171 | TTAGTGTTAT | 0.971
172 | TTATTACATT | 1.03
173 | GTTCAGCCGG | 1.03
174 | CGGGCCCT | 1.03
175 | GGTGGATCCG | 1.07

Row | Sequence | switch fluorescence ratio
176 | AATCCTACTT | 1
177 | TTTTCCGCCT | 1.39
178 | CATGGTGTAC | 1.09
179 | AACTCAATTG | 0.967
180 | GACGGGCGAG | 1
181 | GCGAAGGGAA | 0.999
182 | GGCTTAGAGG | 1
183 | AGTTCGCTCT | 0.968
184 | TTTCTGCAGG | 1.1
185 | CAAGCTATGT | 0.959
186 | AAAGATCCAG | 0.98
187 | TGAGATCGGG | 1
188 | TGAACCATGG | 0.957
189 | CATGTATTCA | 1.01
190 | TGGGTATCGA | 0.995
191 | GTTTTAGACG | 0.903
192 | ATGACGAACG | 1.15
193 | GCTAGTTCGT | 1.31
194 | GCTACCTGTA | 1.05
195 | CATATCTATG | 0.994
196 | GGTACGCAGA | 1.01
197 | ACAACAAGGC | 1.08
198 | GTTGCTTAAG | 0.958
199 | TAAGTCTTCC | 1.63
200 | GGGGTACGG | 1.01
